# Data taken from PubChem BioAssay AID2202238 (Ras Initiative Chemistry Research Team, Frederick National …, 2025).
# This is one part of the list. The main result of the screen is listed elsewhere. These columns were measured beside it and carry no call.
# Biological target: GTPase KRas (Homo sapiens) (UniProt P01116)
# Assay: Fragment capture on engineered cysteines, share of protein labelled (AID 2202238)
# Design: protein at 5 µM with 500 µM competing thiol for 1.5 h
# Conditions: KRAS G12D cysteine mutants, disulfide tethering, MALDI-TOF labeling, stronger effect = higher value, fragment at 500 µM
# [1] = measured here: G60C mutant labeling
# [2] = measured here: G75C mutant labeling
# [3] = measured here: H94C mutant labeling
# [4] = measured here: I36C mutant labeling
# [5] = measured here: L120C mutant labeling
# [6] = measured here: M67C mutant labeling
# [7] = measured here: M72C mutant labeling
# [8] = measured here: N26C mutant labeling
# [9] = measured here: N86C mutant labeling
# [10] = measured here: P121C mutant labeling
# [11] = measured here: S122C mutant labeling
# [12] = measured here: S136C mutant labeling
# UniProt P01116, sequence (P01116 whole entry, looked up, the tested form may be a part): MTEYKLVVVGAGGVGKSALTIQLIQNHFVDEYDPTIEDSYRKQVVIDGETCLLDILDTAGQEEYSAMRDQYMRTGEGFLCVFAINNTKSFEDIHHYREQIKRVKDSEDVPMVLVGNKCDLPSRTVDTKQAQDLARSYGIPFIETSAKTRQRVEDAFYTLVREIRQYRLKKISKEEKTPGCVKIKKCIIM
Compound,percent labeling [1] [%],percent labeling [2] [%],percent labeling [3] [%],percent labeling [4] [%],percent labeling [5] [%],percent labeling [6] [%],percent labeling [7] [%],percent labeling [8] [%],percent labeling [9] [%],percent labeling [10] [%],percent labeling [11] [%],percent labeling [12] [%]
O=C(NCCS)c1csc(Cc2ccccc2F)n1,22.8,10.3,17.5,10,16.4,13.4,34.4,25.5,11.2,13.2,10.5,18.7
CCc1c(C(=O)NCCS)[nH]c(C)c1C(N)=O,37.2,22.8,40.8,34.9,47.4,35.7,41.1,47.4,37.9,32.3,36.6,45.8
O=C(NCCS)c1csc2cc(Cl)cnc12,33.6,42,23.6,8.1,14.3,12.4,57.8,30.9,7.3,13.2,8.5,17.4
O=C(NCCS)c1cc(-c2ccncc2)nc2ccccc12,33.5,11.7,14.6,14,13.7,15.6,30.7,40.6,8.5,12.2,9.3,24.3
O=C(CCS)N1C[C@@H]2Oc3c(F)ccc(F)c3O[C@@H]2C1,–,0,27.5,34.1,25.8,38.4,37.8,–,28.6,32.4,20.3,49.2
N#Cc1cccc(CN2C(=O)CCC2C(=O)NCCS)c1 (stereo not given),37.9,14.6,36.6,34.6,26.8,39.9,16.2,35.6,26.6,33.6,31,46.4
O=C(CCS)Nc1ccn(CCN2CCNC2=O)n1,–,8.9,31,34,34,31.6,20.7,–,20.1,29.7,32.7,45.2
Cc1ccc(-c2cc(C(=O)NCCS)c3cnn(C(C)C)c3n2)s1,17.7,6.8,9.4,8.3,5.7,3.7,45.7,27.3,2.7,6.3,0,15
Nc1ncnc2c1ncn2C[C@H]1CC[C@@H](C(=O)NCCS)O1,21,12.4,29.4,25.1,25.6,35.3,12.7,39.1,19.5,21.9,26.8,44.7
O=C(NCCS)c1ccc(Oc2ccc(Cl)cc2)c(F)c1,21.5,7.5,11.3,10.1,7.7,15.6,25.4,20.8,11.6,14.5,4.5,7.4
Cc1nc(C2CCCC2)sc1C(=O)NCCS,19.7,15.1,18.9,12.2,22.2,16.3,49.8,30.6,11.5,16.9,15.5,35.4
Cc1sc(C2(NC(=O)CCS)CCC2)nc1-c1ccccc1F,–,9.8,19.2,15.6,23.7,17.2,27.9,–,11.9,13.4,12.2,40.4
Cn1cc(CCC(=O)NCCS)cn1,29.3,19.6,31,28.8,32.6,32.6,16.9,33.7,25.5,32.5,30.6,37.2
O=C(CCS)NCCc1nc2ncccn2n1,–,5.8,22.5,41.4,31.5,32.9,11.8,–,21.6,39.4,33,48
NC(=O)c1cn(C2CCN(C(=O)CCS)CC2)nn1,–,12.1,34.4,45.8,47.5,48.1,26.6,–,33.7,40.7,39.6,65.1
O=C(CCS)NCc1ccnc(-n2cncn2)c1,–,13.3,24.5,36.7,29.9,35.6,25.5,–,19.6,31.2,31.8,46.3
O=C(CCS)N1CCN(C(=O)c2n[nH]c3ccccc23)CC1,–,14.7,35.4,50.8,33.4,79.8,34.4,–,26.4,40.9,33.4,57
O=C(NCCS)c1ccc(-n2ccnc2)cn1,36.8,31,35.1,26.8,29.9,35.7,53.6,45.4,27.8,26,24.9,47.5
O=C(CCn1c2ccc(Cl)cc2c2cc(Cl)ccc21)NCCS,29.8,8.5,17.5,12.5,10,6.4,25.8,23.5,10.5,7.8,2.8,6.9
NC(=O)NC(CC(=O)NCCS)c1cccs1 (stereo not given),26.9,8.9,25.4,23.9,31.5,27.3,15,28,23.2,30.8,25.4,33.9
O=C(CCS)N1CCN(C(=O)c2cccc(F)c2)CC1,–,13,36.2,41.6,31.7,40.4,29,–,26,42.4,37,58.6
Cc1cc(C)n(C)c(=O)c1CNC(=O)CCS,–,9.7,26.9,34.1,32.2,33.2,17.2,–,21.2,36.3,31.3,55.7
Cc1nc(-c2cnn(C)c2)sc1C(=O)NCCS,31.5,23.2,32,25,35.2,31.8,54.5,54.6,28.7,24,27.6,42.3

Compound,percent labeling [1] [%],percent labeling [2] [%],percent labeling [3] [%],percent labeling [4] [%],percent labeling [5] [%],percent labeling [6] [%],percent labeling [7] [%],percent labeling [8] [%],percent labeling [9] [%],percent labeling [10] [%],percent labeling [11] [%],percent labeling [12] [%]
COc1ccccc1N(Cc1nc(C)cs1)C(=O)CCS,–,20.4,49.4,34,32.3,44.1,39.4,–,26,30.6,26,67.5
CN(C)Cc1ccc(CNC(=O)CCS)s1,–,12.2,27.7,53,30.3,41.3,19.9,–,15.8,28.1,29.2,48.4
O=C(CCS)N1CCC(c2ncccc2Cl)CC1,–,24.3,45.3,38.2,37.8,49.7,55.1,–,33.1,38.7,37.9,64.8
O=C(NCCS)C1CCN(C(=O)c2ccc(-c3ncccn3)cc2)CC1,33.5,16.5,34.7,20.7,28.2,29.3,29.6,41.6,22.4,27.3,33.3,35.8
COCc1nc(CNC(=O)CCS)c(-c2ccccc2)s1,–,14.6,36,32.8,27.2,36.1,36,–,25.9,30.8,21.6,56.3
CCc1cccc2c(F)c(C(=O)NCCS)[nH]c12,12.6,12.1,8.9,6.6,14,8,30.2,19.9,10.1,9.8,10,15.7
Cc1c(C(=O)NCCS)cnc2c1c(=O)n(C)c(=O)n2C,51.3,25.9,37.1,35.6,34.8,48.7,74.4,58.5,29.7,33.9,29.9,49.4
O=C(CCS)Nc1cnn(CC(=O)NC2CC2)c1,–,17.4,26.5,37,26.8,32,24.9,–,31.7,30.8,39.4,45.2
O=C(CCS)NCC(=O)Nc1ccccc1Br,–,13.8,31.5,34,39.4,39.5,39,–,29.2,30.8,31.7,43.2
CN1CCN(C2(C(=O)NCCS)CCCC2)CC1,38.4,15.5,41.5,35.5,29.5,42.3,22.2,37.4,32.3,33.8,31.9,53.1
O=C(CCS)Nc1ccc(-c2nnc3n2CCCCC3)cc1,–,17,27.2,28.1,28.1,29.8,37.5,–,21.8,26.1,25.2,37.9
COc1ccc(OC)c(C2CC2C(=O)NCCS)c1 (stereo not given),30.4,19.1,23.2,20.3,31.7,20.5,31.5,39.2,19.2,24.5,23.3,51.4
O=C(NCCS)C1(Cc2cn[nH]n2)CCCC1,35.6,12.6,30.3,22.5,30.4,25.7,20.7,40.3,34.1,31.7,30,41.3
CC(C)c1cc(C(=O)NCCS)c(C(C)C)[nH]1,10.7,6.1,12.4,7.6,19.5,11.6,7.7,16,6.3,11,8.9,18.8
CCn1nccc1C1CCN(C(=O)CCS)CC1,–,15.7,33.5,34.7,36.2,41.3,24.2,–,14.5,34.5,35.2,60.3
O=C1CN(S(=O)(=O)c2cccc(NC(=O)CCS)c2)CCN1,–,24.7,35.8,39.8,32.8,31.4,41.8,–,66.9,27.1,43.2,47.8
O=C(NCCS)C(c1ccccc1)n1cnc2ccccc21 (stereo not given),28.1,5.1,16.2,17.4,18.2,23.7,17.9,28.6,8.6,14.8,14.2,40.1
NC(=O)c1ccccc1OCc1cccc(C(=O)NCCS)c1,23.5,11.7,19,14.6,17.8,14.8,60.8,33.4,10.5,10.5,8.9,19.6
CN(Cc1coc2cc(F)cc(F)c12)C(=O)CCS,–,35,35.4,32,21.6,34.4,47.2,–,23.4,27.1,21.8,43.1
CN1C(=O)CC(C(=O)NCCS)c2ccccc21 (stereo not given),37.9,13.9,29.9,27.2,44.8,32.4,25.4,35.2,20.6,30.4,31.9,57.2
O=C(CCS)N1CCC(n2cccn2)CC1,–,12.8,27.6,32.6,28.4,31.3,19.1,–,22.4,35.9,36.4,52.8
O=C(CCS)N1CCC(c2ccc(F)cc2Cl)CC1,–,21.9,21.9,18.9,15.7,18.6,46.2,–,20.1,18.7,14.2,28.3
CN(c1cc(C(=O)NCCS)ccn1)C1CCCC1,17.1,14.8,12.9,10.6,14.7,14.4,48.1,36.3,10.4,12,11,31.3
